Data reported in PubChem BioAssay AID1645887 (National Center for Advancing Translational Sciences (NCATS), 2021).
Several values for one entry are separate records, joined by “and”; a condition that tells them apart may be missing. Identical values can stand only once. In all, about 16,000 compounds went through this assay and about 40 (0.2%) were called active. Inconclusive results (about 1%) are left out. Calls follow the shape of the dose curve; as a rule, active = well fitted activation curve with a large enough effect; inconclusive = small, poorly fitted or top-dose-only effect, or another doubt; inactive = no such curve, though single readings can be large or run the other way. Some of the results follow.

Target: Rap guanine nucleotide exchange factor 4 (Homo sapiens) (UniProt Q8WZA2)
UniProt Q8WZA2, sequence (Q8WZA2 whole entry, looked up): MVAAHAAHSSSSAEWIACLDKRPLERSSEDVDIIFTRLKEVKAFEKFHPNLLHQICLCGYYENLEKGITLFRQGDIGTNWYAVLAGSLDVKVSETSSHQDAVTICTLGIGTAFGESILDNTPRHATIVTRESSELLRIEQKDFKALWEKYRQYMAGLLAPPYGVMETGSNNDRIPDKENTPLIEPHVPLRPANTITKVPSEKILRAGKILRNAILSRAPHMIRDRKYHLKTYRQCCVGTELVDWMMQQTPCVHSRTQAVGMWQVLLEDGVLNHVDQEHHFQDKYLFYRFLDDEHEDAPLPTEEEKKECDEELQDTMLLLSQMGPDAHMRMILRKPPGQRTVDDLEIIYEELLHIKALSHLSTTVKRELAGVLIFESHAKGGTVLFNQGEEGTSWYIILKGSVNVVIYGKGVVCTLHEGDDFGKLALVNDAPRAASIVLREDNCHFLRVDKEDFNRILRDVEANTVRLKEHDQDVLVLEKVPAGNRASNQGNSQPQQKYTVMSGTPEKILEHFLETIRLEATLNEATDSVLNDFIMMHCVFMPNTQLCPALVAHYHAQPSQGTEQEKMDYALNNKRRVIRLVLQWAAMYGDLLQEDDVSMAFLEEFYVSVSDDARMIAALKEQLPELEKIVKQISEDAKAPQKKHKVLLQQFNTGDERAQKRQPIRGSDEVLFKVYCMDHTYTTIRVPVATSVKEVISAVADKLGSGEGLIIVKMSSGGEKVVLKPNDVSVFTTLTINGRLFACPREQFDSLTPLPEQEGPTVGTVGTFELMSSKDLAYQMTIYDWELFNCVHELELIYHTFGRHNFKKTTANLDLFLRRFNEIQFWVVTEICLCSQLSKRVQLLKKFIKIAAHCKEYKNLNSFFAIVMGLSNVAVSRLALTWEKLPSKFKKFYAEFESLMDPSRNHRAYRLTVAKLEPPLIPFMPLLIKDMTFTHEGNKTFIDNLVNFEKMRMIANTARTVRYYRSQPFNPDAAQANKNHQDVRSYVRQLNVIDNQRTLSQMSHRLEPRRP
Assay: Validation qHTS for agonist of cAMP-regulated guanine nucleotide exchange factor 4 (EPAC2);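 also: exchange makes BODIPY-GDP fluorescence drop when released from Rap1B; series mostly up to about 150 µM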
Conditions: EPAC2 Rap1B BODIPY-GDP exchange, fluorescence; activation: hits give high values
Method in brief: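 Signal normalized against 6.5 mM cAMP as agonist control. Mix of EPAC2 (100 nM), RAP1B-BODIPY-GDP (250 nM) and GDP (50 uM) was read kinetically at 480/540 nm, every 5 min over 30 min, after 5 min room-temperature incubation with compound.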
% is scaled to controls: 0 for no effect and ±100 for the full control effect.

activation, inactive:
COc1cccc(Cn2c(=O)c(-c3cn(C)c4ccccc34)nc3cncnc32)c1 -2.05%
CCCCC(CC)CCC(CC(C)C)OS(=O)(=O)O (configuration not stated) -17% and -5.09%
COc1ccc(NC(=O)N2CC[C@@]3(CCCN(C(=O)c4cccc(F)c4)C3)C2)cc1 -15.9%
O=C(c1cnccn1)N1CCC[C@@]2(CCN(c3ncccn3)C2)C1 -20%
COc1ncc2nc(-c3ccccc3)c(=O)n(C[C@H]3CCCO3)c2n1 -2.4%
CN1C[C@H](C(=O)N[C@]2(C)O[C@@]3(O)[C@@H]4CCCN4C(=O)[C@H](Cc4ccccc4)N3C2=O)C[C@@H]2c3cccc4[nH]cc(c34)C[C@H]21 -2.03% and -17%
CN(Cc1ccco1)c1ncnc2ccc(-c3ccccc3Cl)cc12 -4.17%
O=C(O)COCCN1CCN(C(c2ccccc2)c2ccc(Cl)cc2)CC1 (configuration not stated) -18% and 10% and -15.7%
O=C1CCC[C@@H]2C[C@@]3(C[C@@H]4CCN1[C@H]24)Nc1ccccc1NC3=NCc1ccccc1 -15.8%
COC(=O)C[C@H]1c2cc(F)ccc2S(=O)(=O)N1c1ccc(N(C)C)cc1 -15.9%
O=C1c2ccccc2C(=O)C1c1ccc(Cl)cc1 -0.0548%
OCC1CCCN(c2nc3cc4c(cc3cc2CNCc2cccc(C(F)(F)F)c2)OCO4)C1 (configuration not stated) 1.69%
CC(=O)Oc1ccc(C(=C2CCCCC2)c2ccc(OC(C)=O)cc2)cc1 -4.2%
O=C(c1cc(C(F)(F)F)cc(C(F)(F)F)c1)N1CCC[C@@]2(CCN(Cc3ccncc3)C2)C1 -34.2%
COc1ccc2cc([C@H](C)CO)ccc2c1 -5.75%
O=C(O)c1ccccn1 -4.28%
CCCc1c2oc(C(=O)O)cc(=O)c2cc2c(=O)cc(C(=O)O)n(CC)c12 -8.09%
Oc1cc(O)c2c(c1)OC(c1cc(O)c(O)c(O)c1)C(O)C2 (configuration not stated) -21.4%
COc1cc2c(cc1OC)[C@@H](Cc1cc(OC)c(OC)c(OC)c1)[N+](C)(CCCOC(=O)CC/C=C/CCC(=O)OCCC[N+]1(C)CCc3cc(OC)c(OC)cc3[C@H]1Cc1cc(OC)c(OC)c(OC)c1)CC2 (some centres not stated) -0.0601% and -0.0119%
CC(=O)OCC(=O)[C@@]12OC(C)(C)OC1CC1C3CC(F)C4=CC(=O)C=C[C@@]4(C)[C@@]3(F)C(O)C[C@]12C (some centres not stated) 0.406%
COC(=O)/C=C/c1cc(F)ccc1S(=O)(=O)NC(C)(C)C -14.1%
Cc1cc(C)nc(-c2cccc3c2OC(CNC(=O)c2ccc(Cn4nc(C)cc4C)cc2)C3)n1 (configuration not stated) -5.48%
O=S1(=O)CCOCCCN1Cc1cccc(F)c1 -1.25%
C[C@H]1CN(C2CCCCC2)C(=O)[C@@H]1CC(=O)NCc1ccccc1 -33%
C[C@@H]1C(=O)CC2C(C)(C)CCC[C@]2(C)[C@@]1(O)CCc1ccoc1 (some centres not stated) -17.1%
CC(C)N1CCN(C(=O)c2cnn(-c3nccc(-c4ccc5c(c4)OCO5)n3)c2-c2ccco2)CC1 5.25%
CSc1ccccc1C(=O)NCC1Cc2cccc(-c3ncccc3C)c2O1 (configuration not stated) -1.01%
Cc1cc(-n2c(=O)[nH]c(=O)n(C)c2=O)ccc1Oc1ccc(S(=O)(=O)C(F)(F)F)cc1 -11.8%
CC(=O)O[C@]1(C(C)=O)CC[C@H]2[C@@H]3C=C(Cl)C4=CC(=O)[C@@H]5C[C@@H]5[C@]4(C)[C@H]3CC[C@@]21C -23.7% and -32.8%
COc1ccc(C(=O)NCc2nc(-c3ccccc3NC(=O)c3cc(C)oc3C)oc2C)cc1F -11.9%
CCCCCCCCCCCCCCCC[n+]1ccc(/C=C/c2c[nH]c3ccccc23)cc1 -43.9%
O=C(O)C1CCCN(CCC=C(c2ccccc2)c2ccccc2)C1 (configuration not stated) -14.9% and 11.6% and -19%
CC1(C)OC2CC3C4CC(F)C5=CC(=O)C=CC5(C)C4C(O)CC3(C)[C@]2(C(=O)CO)O1 (some centres not stated) -1.9%
COc1cc(CN2CCC3(CC2)c2ccccc2[C@@H](NC(=O)c2ccccc2OC)[C@@H]3O)ccc1F -11.5%
COc1ccccc1-c1cncnc1NCCc1cnc[nH]1 6.47%
O=C(O)/C=C/c1ccc(O)c(O)c1 -3.84% [middle of 4 runs]
COc1cc2nc(N(C)CCCNC(=O)C3CCCO3)nc(N)c2cc1OC (configuration not stated) -20.5% and -20.4% and -22.4%
c1ccc(Nc2nc(-c3ccoc3)nc3ccccc23)cc1 -7.24%
CCN(CC)c1ccc(C(=C2C=CC(=[N+](CC)CC)C=C2)c2ccccc2)cc1 -7.28%
Cc1cc[n+](C2CCCCC2)c2ccccc12 -5.26%
Oc1ccc2ccccc2c1SSc1c(O)ccc2ccccc12 -44.4%
Clc1ccc(Cn2c(CN3CCCC3)nc3ccccc32)cc1 -33% and -11%
CCOC(=O)N1CCN(Cc2ccc3c(c2)CN(C(=O)c2ccc4ncccc4c2)CCO3)CC1 -8.18%
[O-][N+]12CCCc3cccc(c31)CCC2 -20.7%
C[C@@](N)(C(=O)O)c1ccc(C(=O)O)cc1 -7.88% and -19% and 6.48%
COc1ccccc1Oc1coc2cc(O)ccc2c1=O -11.8%
O=C(O)/C(=C/c1c(C(=O)O)[nH]c2cc(Cl)cc(Cl)c12)c1ccccc1 -13.7%
CN(C)c1ccc(CN2CCOc3ccc(CN4CCC(O)(c5cccnc5)CC4)cc3C2)cc1 -5.16%
CCn1nc(C)cc1C(=O)NCC1Cc2cccc(-c3cccnc3)c2O1 (configuration not stated) -3.64%
CCC1(C2CCN(Cc3cccnc3)CC2)NC(=O)N(CC2COc3ccccc3O2)C1=O (configuration not stated) -7.03%
C[N+](C)(C)CCCCCCCCCC[N+](C)(C)C -17.2% and -5.26%
CC(=O)c1ccc(C(=O)NCC2Cc3cccc(-c4ncccn4)c3O2)cc1 (configuration not stated) -6.58%
Cn1cccc1C(=O)N1CCC2(CCCN(Cc3ccncc3)C2)CC1 -18.9%
COCCNc1nc(-c2ccoc2)nc2ccccc12 -12.8%
COc1ccc(NC(=O)N2CC3(CCN(C(=O)c4cnccn4)CC3)C2)cc1 -5.66%
OCc1ccc(Cl)cc1Cl -24.7%
CN(C)c1ncc2nc(-c3ccccc3)c(=O)n(CCc3ccccc3)c2n1 -8%
CCOc1ccc2nc(N3CCCN(CCCn4cccn4)CC3)nc(C)c2c1 -12.1%
O=C(Cc1ccc(Cl)cc1)c1c(O)cc(O)cc1O 6.33%
CN1C[C@@H]2C[C@H]1CN2c1cc2c(cc1F)c(=O)c(C(=O)O)cn2C1CC1 -0.428%
CCCCCCCCCCCCCC[n+]1ccc(C)cc1 -4.19%
N[C@@H](Cc1c[nH]c2ccc(O)cc12)C(=O)O 0.53% and -32.9%
CN(C)c1ncc2ncc(=O)n(C)c2n1 -9.39%
O=C(O)Cc1nn(Cc2ccc(Br)cc2F)c(=O)c2ccccc12 -24.9%
CCc1cccc2c(C(O)c3c[nH]c4ccccc34)c[nH]c12 (configuration not stated) -5.45%
N#CCCn1c(=O)c(-c2cccc(C#N)c2)nc2cnc(Oc3cccc(Cl)c3)nc21 4.2%
OC1(c2cccnc2)CCN(Cc2ccc3c(c2)CN(Cc2ccsc2)CCO3)CC1 -3.86%
N[C@@H](C(=O)O)c1cc(O)ccc1Cl -21.6%
Cc1cc2c(c(-c3cnccn3)c1)OC(CNC(=O)c1ccccc1C(F)(F)F)C2 (configuration not stated) -8.97%
Cc1cc(C)c2c(C)ccnc2c1 -20.4%
COC(=O)C1N[C@@H]([C@@H](NC(=O)COc2ccccc2)C(=O)NCc2ccc(OC)cc2)SC1(C)C (some centres not stated) -23.7%
NC(N)=Nc1ccc(Cl)cc1 -18.4%
Cc1cc(CNC(=O)c2cnn(-c3nccc(-c4ccc5c(c4)OCO5)n3)c2C2CC2)on1 -10.2%
CC1c2ccccc2CN1NC(=O)c1ccc(Cl)c(S(N)(=O)=O)c1 (configuration not stated) 3.5%
O=C(c1ccncc1)N1CCC2(CCCN(Cc3ccncc3)C2)CC1 -13.6%
[N-]=[N+]=NCC1OC(n2cnc3c(=O)[nH]c(N)nc32)C(O)C1O (configuration not stated) 1.52%
COCCNc1ncnc2ccc(-c3ccccc3CN(C)C)cc12 -5.32%
CCCCCCCCCCCCCCCC(=O)OC[C@@H](NC(=O)C(Cl)Cl)[C@H](O)c1ccc([N+](=O)[O-])cc1 4.84%
CN(CCO)C(=O)c1cn(C2CCN(Cc3ccc(C(F)(F)F)cc3)CC2)nn1 7.53%
COc1cc(OC)cc(OC)c1 -16%
O=C(O)Cc1ccccc1Oc1ccc(Cl)cc1Cl -4.33%
CNC1C(O)C(O)C(CO)O[C@H]1OC1C(O[C@@H]2C(O)C(O)[C@@H](N=C(N)N)C(O)C2N=C(N)N)OC(C)[C@]1(O)C=O (some centres not stated) 2.43%
